# From the supplement of paper PMC8728848
# Some of the results follow.
# B1: Regenerating Gene I (Homo sapiens), P05451 (protein)
# chain: MAQTSSYFMLISCLMFLSQSQGQEAQTELPQARISCPEGTNAYRSYCYYFNEDRETWVDADLYCQNMNSGNLVSVLTQAEGAFVASLIKESGTDDFNVWIGLHDPKKNRRWHWSSGSLVSYKSWGIGAPSSVNPGYCVSLTSSTGFQKWKDVPCEDKFSFVCKFKN
# Columns and labels:
# Experiment in all cases: glycan array binding signal (z-score within array); higher = stronger binding
# Settings in all cases: glycan notation: IUPAC condensed, linker removed
# Gal3S(b1-4)GlcNAc = target: Gal3S(b1-4)GlcNAc
# In short: (§1)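 Columns mapping to the same glycan were averaged after glycan names were converted to IUPAC-condensed notation. The data come from 3228 arrays in the Consortium for Functional Glycomics database, limited to those with an available protein sequence. Binding is reported as a within-array Z-score averaged across arrays of one protein sequence and across linkers.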
# Gal3S(b1-4)GlcNAc6S = target: Gal3S(b1-4)GlcNAc6S
# In short: as §1
# [1] = target: Gal3S(b1-4)[Fuc(a1-3)]Glc
# In short: as §1
# Gal3S4S(b1-4)GlcNAc = target: Gal3S4S(b1-4)GlcNAc
# In short: as §1
# Gal3S6S(b1-4)GlcNAc = target: Gal3S6S(b1-4)GlcNAc
# In short: as §1
# Gal3S6S(b1-4)GlcNAc6S = target: Gal3S6S(b1-4)GlcNAc6S
# In short: as §1
# Gal4S(b1-4)GlcNAc = target: Gal4S(b1-4)GlcNAc
# In short: as §1
# Gal4S6S(b1-4)GlcNAc = target: Gal4S6S(b1-4)GlcNAc
# In short: as §1
# Gal6S(b1-4)Glc = target: Gal6S(b1-4)Glc
# In short: as §1
# Gal6S(b1-4)Glc6S = target: Gal6S(b1-4)Glc6S
# In short: as §1
# Gal6S(b1-4)GlcNAc = target: Gal6S(b1-4)GlcNAc
# In short: as §1
# Gal6S(b1-4)GlcNAc6S = target: Gal6S(b1-4)GlcNAc6S
# In short: as §1
# GalNAc(a1-3)Gal = target: GalNAc(a1-3)Gal
# In short: as §1
# GalNAc(a1-3)GalNAc = target: GalNAc(a1-3)GalNAc
# In short: as §1
# GalNAc(b1-3)Gal = target: GalNAc(b1-3)Gal
# In short: as §1
# [2] = target: GalNAc(b1-3)Gal(a1-4)Gal(b1-4)GlcNAc
# In short: as §1
# GalNAc(b1-3)GalNAc = target: GalNAc(b1-3)GalNAc
# In short: as §1
# GalNAc(b1-4)GlcNAc = target: GalNAc(b1-4)GlcNAc
# In short: as §1
# Glc(a1-4)Glc = target: Glc(a1-4)Glc
# In short: as §1
# Glc(a1-6)Glc(a1-6)Glc = target: Glc(a1-6)Glc(a1-6)Glc
# In short: as §1
# Glc(b1-4)Glc = target: Glc(b1-4)Glc
# In short: as §1
# Glc(b1-6)Glc = target: Glc(b1-6)Glc
# In short: as §1
# GlcA(b1-3)Gal = target: GlcA(b1-3)Gal
# In short: as §1
# GlcA(b1-3)GlcNAc = target: GlcA(b1-3)GlcNAc
# In short: as §1
# GlcA(b1-6)Gal = target: GlcA(b1-6)Gal
# In short: as §1
# [3] = target: GlcNAc(a1-3)Gal(b1-4)GlcNAc
# In short: as §1
# [4] = target: GlcNAc(a1-6)Gal(b1-4)GlcNAc
# In short: as §1
# [5] = target: GlcNAc(b1-2)Gal(b1-3)GalNAc
# In short: as §1
# [6] = target: GlcNAc(b1-2)Man(a1-3)[GlcNAc(b1-2)Man(a1-6)]Man(b1-4)GlcNAc(b1-4)GlcNAc
# In short: as §1
# GlcNAc(b1-3)Gal = target: GlcNAc(b1-3)Gal
# In short: as §1
# [7] = target: GlcNAc(b1-3)Gal(b1-3)GalNAc
# In short: as §1
# GlcNAc(b1-3)Gal(b1-4)Glc = target: GlcNAc(b1-3)Gal(b1-4)Glc
# In short: as §1
# [8] = target: GlcNAc(b1-3)Gal(b1-4)GlcNAc
# In short: as §1
# [9] = target: GlcNAc(b1-3)Gal(b1-4)GlcNAc(b1-3)Gal(b1-4)GlcNAc
# In short: as §1
# GlcNAc(b1-3)GalNAc = target: GlcNAc(b1-3)GalNAc
# In short: as §1
# GlcNAc(b1-3)Man = target: GlcNAc(b1-3)Man
# In short: as §1
# [10] = target: GlcNAc(b1-3)[GlcNAc(b1-4)][GlcNAc(b1-6)]GlcNAc
# In short: as §1
# [11] = target: GlcNAc(b1-3)[GlcNAc(b1-6)]Gal(b1-4)GlcNAc
# In short: as §1
# [12] = target: GlcNAc(b1-3)[GlcNAc(b1-6)]GalNAc
# In short: as §1
# [13] = target: GlcNAc(b1-4)Gal(b1-4)GlcNAc
# In short: as §1
# GlcNAc(b1-4)GlcNAc = target: GlcNAc(b1-4)GlcNAc
# In short: as §1
# [14] = target: GlcNAc(b1-4)GlcNAc(b1-4)GlcNAc
# In short: as §1
# [15] = target: GlcNAc(b1-4)GlcNAc(b1-4)GlcNAc(b1-4)GlcNAc(b1-4)GlcNAc
# In short: as §1
# [16] = target: GlcNAc(b1-4)GlcNAc(b1-4)GlcNAc(b1-4)GlcNAc(b1-4)GlcNAc(b1-4)GlcNAc
# In short: as §1
# [17] = target: GlcNAc(b1-4)[GlcNAc(b1-6)]GalNAc
# In short: as §1
binder,measurement,setting,value
B1,glycan array binding signal (z-score),Gal3S(b1-4)GlcNAc,-0.278
same,glycan array binding signal (z-score),Gal3S(b1-4)GlcNAc6S,1.1
same,glycan array binding signal (z-score),[1],-0.027
same,glycan array binding signal (z-score),Gal3S4S(b1-4)GlcNAc,0.222
same,glycan array binding signal (z-score),Gal3S6S(b1-4)GlcNAc,0.582
same,glycan array binding signal (z-score),Gal3S6S(b1-4)GlcNAc6S,0.769
same,glycan array binding signal (z-score),Gal4S(b1-4)GlcNAc,0.291
same,glycan array binding signal (z-score),Gal4S6S(b1-4)GlcNAc,0.545
same,glycan array binding signal (z-score),Gal6S(b1-4)Glc,-0.067
same,glycan array binding signal (z-score),Gal6S(b1-4)Glc6S,0.787
same,glycan array binding signal (z-score),Gal6S(b1-4)GlcNAc,-0.094
same,glycan array binding signal (z-score),Gal6S(b1-4)GlcNAc6S,0.952
same,glycan array binding signal (z-score),GalNAc(a1-3)Gal,1.27
same,glycan array binding signal (z-score),GalNAc(a1-3)GalNAc,-0.588
same,glycan array binding signal (z-score),GalNAc(b1-3)Gal,0.483
same,glycan array binding signal (z-score),[2],0.085
same,glycan array binding signal (z-score),GalNAc(b1-3)GalNAc,-0.187
same,glycan array binding signal (z-score),GalNAc(b1-4)GlcNAc,-0.128
same,glycan array binding signal (z-score),Glc(a1-4)Glc,-0.269
same,glycan array binding signal (z-score),Glc(a1-6)Glc(a1-6)Glc,-0.118
same,glycan array binding signal (z-score),Glc(b1-4)Glc,1.09
same,glycan array binding signal (z-score),Glc(b1-6)Glc,-0.473
same,glycan array binding signal (z-score),GlcA(b1-3)Gal,-0.114
same,glycan array binding signal (z-score),GlcA(b1-3)GlcNAc,0.836
same,glycan array binding signal (z-score),GlcA(b1-6)Gal,0.056
same,glycan array binding signal (z-score),[3],0.944
same,glycan array binding signal (z-score),[4],-0.008
same,glycan array binding signal (z-score),[5],-0.206
same,glycan array binding signal (z-score),[6],-0.251
same,glycan array binding signal (z-score),GlcNAc(b1-3)Gal,-0.215
same,glycan array binding signal (z-score),[7],1.62
same,glycan array binding signal (z-score),GlcNAc(b1-3)Gal(b1-4)Glc,1.55
same,glycan array binding signal (z-score),[8],-0.357
same,glycan array binding signal (z-score),[9],-0.517
same,glycan array binding signal (z-score),GlcNAc(b1-3)GalNAc,-0.452
same,glycan array binding signal (z-score),GlcNAc(b1-3)Man,-0.525
same,glycan array binding signal (z-score),[10],0.255
same,glycan array binding signal (z-score),[11],-0.377
same,glycan array binding signal (z-score),[12],-0.004
same,glycan array binding signal (z-score),[13],2.18
same,glycan array binding signal (z-score),GlcNAc(b1-4)GlcNAc,-0.503
same,glycan array binding signal (z-score),[14],-0.188
same,glycan array binding signal (z-score),[15],-0.257
same,glycan array binding signal (z-score),[16],-0.396
same,glycan array binding signal (z-score),[17],1.91
